# Reference: the supplement of paper PMC7826260
# The list shows a part of the results. Each Rep nickase domain was tested in vitro on the same pool of single strands (3 µM enzyme, 1 h, 37 °C); shown is the middle of each 90-letter strand. A value is the log2 ratio of uncut reads to the pool without enzyme; uncut sequences lie near 0, cut ones below; no hit call is given. Shares of all reads are compared; where an enzyme cuts many sequences, the uncut ones exceed 0.
# What was measured:
# Test in all cases: uncleaved DNA left, log2 of reads against the no-enzyme library (log2 ratio); higher = less cleavage (more negative = more Rep cleavage of the k-mer); sequences stand for … in CTCGTCCG…ACCGGAGA
# [1] = tested on: T1, Rep nickase domain of Muscovy duck circovirus
# T1 sequence (Rep 1-111, printed without the tag): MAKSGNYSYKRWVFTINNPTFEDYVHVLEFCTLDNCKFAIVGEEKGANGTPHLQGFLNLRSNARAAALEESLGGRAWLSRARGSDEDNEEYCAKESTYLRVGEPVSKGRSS
# Description: (§1)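 A pool of 90-nt single-stranded DNAs with seven random bases just before the constant AC of the nick site (name = the seven bases) was cut by 3 µM recombinant His6-SUMO-tagged Rep nickase domain (300 nM DNA, 50 mM HEPES pH 8.0, 50 mM NaCl, 1 mM MnCl2, 1 h, 37 °C, three replicates). Uncut DNA was amplified and sequenced.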
# [2] = tested on: T2, Rep nickase domain of banana bunchy top virus
# T2 sequence (Rep 1-94, printed without the tag): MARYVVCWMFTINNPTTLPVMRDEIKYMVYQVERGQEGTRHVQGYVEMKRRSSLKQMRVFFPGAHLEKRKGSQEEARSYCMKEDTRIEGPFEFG
# Description: as §1
# [3] = tested on: T3, Rep nickase domain of cabbage leaf curl virus
# T3 sequence (Rep 1-116, printed without the tag): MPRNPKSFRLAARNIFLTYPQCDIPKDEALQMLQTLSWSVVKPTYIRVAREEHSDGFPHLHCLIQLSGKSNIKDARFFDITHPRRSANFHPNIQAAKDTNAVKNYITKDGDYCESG
# Description: as §1
# [4] = tested on: T4, Rep nickase domain of chickpea chlorotic dwarf virus
# T4 sequence (Rep 1-124, printed without the tag): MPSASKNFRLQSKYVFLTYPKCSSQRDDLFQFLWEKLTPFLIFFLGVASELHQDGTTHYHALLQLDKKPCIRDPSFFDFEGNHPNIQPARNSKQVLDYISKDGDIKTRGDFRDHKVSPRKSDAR
# Description: as §1
# [5] = tested on: T5, Rep nickase domain of faba bean necrotic yellows virus
# T5 sequence (Rep 1-98, printed without the tag): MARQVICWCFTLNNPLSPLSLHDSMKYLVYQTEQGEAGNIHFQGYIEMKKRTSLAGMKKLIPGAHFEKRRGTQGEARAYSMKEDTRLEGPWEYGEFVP
# Description: as §1
# [6] = tested on: T6, Rep nickase domain of maize striate mosaic virus
# T6 sequence (Rep 1-117, printed without the tag): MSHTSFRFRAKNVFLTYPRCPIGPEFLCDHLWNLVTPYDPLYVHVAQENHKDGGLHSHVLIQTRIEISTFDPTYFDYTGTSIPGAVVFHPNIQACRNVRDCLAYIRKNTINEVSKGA
# Description: as §1
# [7] = tested on: T7, Rep nickase domain of porcine circovirus 2
# T7 sequence (Rep 2-116, printed without the tag): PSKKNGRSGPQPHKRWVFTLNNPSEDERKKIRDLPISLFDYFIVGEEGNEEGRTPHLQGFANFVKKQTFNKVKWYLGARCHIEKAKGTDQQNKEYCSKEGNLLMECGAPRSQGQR
# Description: as §1
# [8] = tested on: T8, Rep nickase domain of tomato golden mosaic virus
# T8 sequence (Rep 1-124, printed without the tag): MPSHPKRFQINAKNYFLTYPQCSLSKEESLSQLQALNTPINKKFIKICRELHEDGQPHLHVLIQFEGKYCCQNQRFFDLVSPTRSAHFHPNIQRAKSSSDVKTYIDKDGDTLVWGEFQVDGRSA
# Description: as §1
# [9] = tested on: T9, Rep nickase domain of tomato yellow leaf curl virus
# T9 sequence (Rep 1-136, printed without the tag): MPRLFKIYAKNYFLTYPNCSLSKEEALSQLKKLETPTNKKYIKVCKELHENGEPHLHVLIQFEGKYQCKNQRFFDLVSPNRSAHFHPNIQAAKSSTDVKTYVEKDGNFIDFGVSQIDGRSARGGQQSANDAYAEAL
# Description: as §1
# [10] = tested on: T10, Rep nickase domain of wheat dwarf virus
# T10 sequence (Rep 1-137, printed without the tag): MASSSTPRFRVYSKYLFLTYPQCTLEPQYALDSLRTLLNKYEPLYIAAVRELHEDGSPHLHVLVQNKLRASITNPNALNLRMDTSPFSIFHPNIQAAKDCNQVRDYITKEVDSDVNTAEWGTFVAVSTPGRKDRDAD
# Description: as §1
Sequence,uncleaved DNA left (log2) [1],uncleaved DNA left (log2) [2],uncleaved DNA left (log2) [3],uncleaved DNA left (log2) [4],uncleaved DNA left (log2) [5],uncleaved DNA left (log2) [6],uncleaved DNA left (log2) [7],uncleaved DNA left (log2) [8],uncleaved DNA left (log2) [9],uncleaved DNA left (log2) [10]
AAGCGGA,0.0923,0.0318,0.194,0.53,-0.0224,0.253,0.0196,0.164,-0.011,0.0181
CTGAAGC,-0.0574,-0.0401,-0.437,-0.638,-0.0708,-1.05,-0.0404,-0.0431,-0.0227,-0.0338
TGGAGGA,0.146,-0.00329,0.297,0.654,-0.0574,0.244,0.163,0.0113,0.00197,-0.0613
ATGAATA,-0.0414,-0.0192,-0.143,-1.45,0.0967,-0.413,-0.00203,0.0718,-0.0428,0.0364
AGTAATT,0.0149,-0.469,0.0917,-1.77,-1.09,0.131,-3.59,-0.0193,0.222,0.101
GTTGCAC,0.0155,0.064,0.0827,0.56,-0.0188,0.215,0.011,-0.0672,0.0747,0.0566
AATATTC,-0.0544,-0.0897,-0.153,-0.386,0.0258,-0.932,-0.118,-0.121,-0.185,-0.135
CGATCCC,-0.125,-0.0147,0.134,0.198,-0.0102,-0.0648,0.00133,-0.164,0.0564,-0.0121
TCAAGTC,0.0899,-0.0924,-0.896,-1.56,-0.0972,-0.897,0.0175,-0.104,-0.0395,-0.239
CGTCATC,0.0761,0.0619,0.185,0.364,0.0546,-0.0901,0.0532,-0.034,0.172,0.117
GAATAAC,0.0838,0.00565,-0.501,-1.06,0.0904,0.348,0.0826,0.0125,-0.0511,-0.0151
ACGTCAT,0.0351,0.0249,-0.0899,-0.525,-0.0629,-0.307,-0.54,0.0609,0.0185,0.0872
GGCTATG,-0.00933,-0.0858,0.176,0.645,-0.128,1.24,-0.00195,-0.0221,-0.0173,0.000487
CAGGGTC,-0.00102,-0.149,0.187,0.647,-0.0488,0.899,-0.0122,-0.0293,-0.0298,-0.0102
GTCGCAA,0.2,0.153,0.528,1.6,0.0681,1.92,-0.0144,0.189,0.0946,0.107
